Source: article PMC7819943, “Rice protein-binding microarrays: a tool to detect cis-acting elements near promoter regions in rice”
The other results are listed elsewhere or left out.

Target: T1, OsWOX13 (Oryza sativa, UniProt Q5QMM3 1-267)
T1 sequence: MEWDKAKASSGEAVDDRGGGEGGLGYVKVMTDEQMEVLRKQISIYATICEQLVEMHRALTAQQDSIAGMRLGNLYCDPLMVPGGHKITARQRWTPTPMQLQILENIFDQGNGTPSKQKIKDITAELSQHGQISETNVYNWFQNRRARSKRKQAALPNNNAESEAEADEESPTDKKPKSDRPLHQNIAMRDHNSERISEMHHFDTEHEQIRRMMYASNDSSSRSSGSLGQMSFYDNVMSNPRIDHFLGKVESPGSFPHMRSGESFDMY
Experiment: protein-binding microarray (RPBM); PBS, 2% BSA, 51.3 ng/ul salmon testes DNA, 50 uM zinc acetate, 200 nM TF, 25 C, 1 h; high values mean tight binding
Conditions: protein: recombinant; tags: N-terminal polyhistidine and DsRed monomer fusion (pET32a); label: CyDye5-dUTP incorporated in the synthesized complementary strand; 3' TTTTT single-stranded linker to array surface; dsDNA, one strand shown
Outline: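 Ni–NTA purification followed expression in E. coli BL21-CodonPlus of transcription factors fused N-terminally to a polyhistidine tag and DsRed. At 200 nM in PBS with 2% BSA, salmon testes DNA and 50 µM zinc acetate, the protein was incubated for 1 h at 25 °C with a custom Agilent array that had been primer-extended with Cy5-dUTP and blocked with 2% BSA. After washing, the array was read on an Axon 4000B scanner. The binding signal is per-feature fluorescence intensity in arbitrary units.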

Sequence	binding signal
CAACATTGCATTGATTGTAGTATTATTATGAGAAGATTAGCGGAGTCACCTAGTGCAG	9220 fluorescence intensity (a.u.)
GTCTAGATTTATTGCATTGACATAGATAGCATGCATGGCTCGGAGTCACCTAGTGCAG	14500 fluorescence intensity (a.u.)
AAAATTAGAGTCCAATCATTCTACTGATTAGAACTTACACCGGAGTCACCTAGTGCAG	34600 fluorescence intensity (a.u.)
TATATGTAATTACACTGTAACTTGCATGTAACTACAGTGTCGGAGTCACCTAGTGCAG	22700 fluorescence intensity (a.u.)
TTGAATTGGTGCATAAACAAACATTTTGCCTTCTCCAGGTCGGAGTCACCTAGTGCAG	4470 fluorescence intensity (a.u.)
ATCCTTAATATGACATGATTAATGGATATTAGATTGTACCCGGAGTCACCTAGTGCAG	20300 fluorescence intensity (a.u.)
TGGATTGAAAATTGTATTGATCAAGCAACAACAGCCACCTCGGAGTCACCTAGTGCAG	18800 fluorescence intensity (a.u.)
TTGTATAAATTGGCTATTAGATTGGCTATAGATTAATTGGCGGAGTCACCTAGTGCAG	58900 fluorescence intensity (a.u.)
TATAGTAAATTTAGTATTGAATCTATAGTTGTTAAATATGCGGAGTCACCTAGTGCAG	5960 fluorescence intensity (a.u.)
CACAAAGCATCAATCAAACAATTGATACAACTCTGATAGTCGGAGTCACCTAGTGCAG	20100 fluorescence intensity (a.u.)
AGTATTAAACATAGACTAATCATAAAACACATTCCATAACCGGAGTCACCTAGTGCAG	3260 fluorescence intensity (a.u.)
AGCAGTAATTTTGAGTTAACAAAGCAAGTTTAGAGTTTTGCGGAGTCACCTAGTGCAG	14000 fluorescence intensity (a.u.)
AAATTGAATAGTAATTGTGTTATTTTGGATTGAAGCCAAACGGAGTCACCTAGTGCAG	6690 fluorescence intensity (a.u.)
TTATTGATTGATTGAATCAGACTGAAATTCCAAACCACGACGGAGTCACCTAGTGCAG	63100 fluorescence intensity (a.u.)
GGATGGGGAGTTGATTGCGGGAGGGATGAGTGTGGACGCACGGAGTCACCTAGTGCAG	18400 fluorescence intensity (a.u.)
GAAGATTGAATCCCTCTGGTGTATATTACCTTCTGTTCTTCGGAGTCACCTAGTGCAG	31000 fluorescence intensity (a.u.)
TACATGTATAATTTATTTTGTGAATTTAGACGAAATTTCCCGGAGTCACCTAGTGCAG	6010 fluorescence intensity (a.u.)
GAAACAAACAAAGCGTGATTGATGGCTATCTAGGTACATACGGAGTCACCTAGTGCAG	37200 fluorescence intensity (a.u.)
CAGATAGACATACCGATAATAAAAGTGACTGAAAGTAAAACGGAGTCACCTAGTGCAG	5230 fluorescence intensity (a.u.)
CCGTTTCACAATGTAATTATTGAATTGCATTGCTCAACCGCGGAGTCACCTAGTGCAG	4730 fluorescence intensity (a.u.)
TTACTAGATTTATCATTAAACATACTATCATAATATGCAACGGAGTCACCTAGTGCAG	6040 fluorescence intensity (a.u.)

Sequence	binding signal
AAATTGATTATAGATAATTTAGATATAGTAGGTAGCTATACGGAGTCACCTAGTGCAG	18800 fluorescence intensity (a.u.)
AGTCAGATTGATTGTTGACTTGCCTGTAGCTGAACTCAGCCGGAGTCACCTAGTGCAG	44200 fluorescence intensity (a.u.)
ACTAATAACAAAACAAATTACAGATTTCGCCTATAAACTGCGGAGTCACCTAGTGCAG	5510 fluorescence intensity (a.u.)
TATATTCAATTATTGATTTGATGAAACTAAGTTAGTATCGCGGAGTCACCTAGTGCAG	44800 fluorescence intensity (a.u.)
GTGATTAGCCATTCCTCTTCTCATCTCTAGCCACTTCGCTCGGAGTCACCTAGTGCAG	15500 fluorescence intensity (a.u.)
ATTAATTAGGCTTAATAAATTCGTTTCGCAGTTTACAGGCCGGAGTCACCTAGTGCAG	33000 fluorescence intensity (a.u.)
CGCTTTCCAATTACCACACTTTCTTTCTTCTCTGAATGTACGGAGTCACCTAGTGCAG	5850 fluorescence intensity (a.u.)
GATTCATTGACAAGTTAAGGGACCTCATATGAACTTATTCCGGAGTCACCTAGTGCAG	4570 fluorescence intensity (a.u.)
GTGATGATCAATTATGAACGAAACGAAGGGAGTAAAGCTTCGGAGTCACCTAGTGCAG	16400 fluorescence intensity (a.u.)
TTCTGGATTAATTGCGGAATTAGAGAGTTTGATCATAACCCGGAGTCACCTAGTGCAG	20500 fluorescence intensity (a.u.)
TAATTTTGACAGGATTTCTTATGTATTTACTAAATTTGGCCGGAGTCACCTAGTGCAG	21400 fluorescence intensity (a.u.)
TCTGATCGATGAGTATAAATTTATATACCTTGTTCGTTCGCGGAGTCACCTAGTGCAG	13400 fluorescence intensity (a.u.)
GGGAACTATCAATTAGACCATCTTTGCTTCAAGGTAATCTCGGAGTCACCTAGTGCAG	14200 fluorescence intensity (a.u.)
TACATATGTCTAGATTTATTAACATCTAAATGAATATAGGCGGAGTCACCTAGTGCAG	3340 fluorescence intensity (a.u.)
TGTTGATGAGCTAAAGGTTGCAAATTGGAATGGTTTGGGGCGGAGTCACCTAGTGCAG	9920 fluorescence intensity (a.u.)
TTCCTAATTGCTCTGTTTTAGCTGCCACAGGGAATCAACTCGGAGTCACCTAGTGCAG	10900 fluorescence intensity (a.u.)
TACATCACTAATCACGTTGCTTCGATGACACCTCCTTCTTCGGAGTCACCTAGTGCAG	7440 fluorescence intensity (a.u.)
TACAAACTATATACTAATTGGTTGTAACCTCTTTGAAGTACGGAGTCACCTAGTGCAG	28700 fluorescence intensity (a.u.)
ATTATTTCTGGATTAATTAATATCACTCCTGAAATGGTGGCGGAGTCACCTAGTGCAG	5820 fluorescence intensity (a.u.)
GTTGACAACTTTCCAATTTGAAATCATTTACTATCCAAAACGGAGTCACCTAGTGCAG	4920 fluorescence intensity (a.u.)
GAGTATTAAGAAAATTGATAGTTTTAGAAGCATATGACACCGGAGTCACCTAGTGCAG	3370 fluorescence intensity (a.u.)
